PubChem BioAssay (Tox21)
Results filed as inconclusive are left out. Unless noted, calls come from the whole dose curve; as a rule, active = well fitted curve in the direction sought with a large enough effect in the repeat runs; inconclusive = weak or mixed curves; inactive = no such curve, though single readings can be large; an effect the other way counts as inactive or inconclusive. Some compounds were tested as several samples or in several runs, with calls that do not always agree. Certain results were filed several times, with different values. This is not the full list of results. The source may hold further records. The records of an entry are repeats in other runs, samples, wells, individuals or studies. Records carry a tag for their origin. Letters hold for one entry only.

Columns and labels:
[1] = qHTS assay for small molecules that induce genotoxicity in human embryonic kidney cells expressing luciferase-tagged ATAD5 - cell viability (AID 651634; calls by dose curve; note: nearly all actives have a fitted effect of over 25% in size)
Procedure, shortened: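 Cytotoxicity counter-readout: after 15.5 hr compound treatment at 37C, live-cell protease activity in ATAD5-luciferase HEK293T cells measured by CellTiter-Fluor fluorescence, 30 min development at 37C.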

[2] = qHTS assay to identify small molecule antagonists of the glucocorticoid receptor (GR) signaling pathway - cell viability counter screen (AID 720693); note: nearly all actives have a fitted effect of over 55% in size
[3] = qHTS assay to identify small molecule antagonists of the constitutive androstane receptor (CAR) signaling pathway - cell viability counter screen (AID 1224837); note: nearly all actives have a fitted effect of over 45% in size
Procedure, shortened: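 Cytotoxicity counter-screen: CellTiter-Fluor fluorescence after 23 h compound exposure (15-point qHTS) in double-stable HepG2-CYP2B6-hCAR cells, with 50 nM CITCO added.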

[4] = qHTS assay to identify small molecule antagonists of the TGF-beta/Smad signaling pathway - cell viability counter screen (AID 1346824); note: nearly all actives have a fitted effect of over 50% in size
Procedure, shortened: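 Cytotoxicity counter-screen run in the same wells as the beta-lactamase Smad reporter read: CellTiter-Glo luminescence after 30 min at room temperature. HEK 293T SBE-bla cells had 5 hr compound exposure at 37 C with TGF-beta1 (0.25 ng/mL stock).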

[5] = qHTS assay to identify small molecule agonists of the sonic hedgehog signaling (Shh) pathway (AID 1259368; calls by dose curve; note: nearly all actives have a fitted effect of over 15% in size)
Procedure, shortened: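 Luminescence was read after 30 min at room temperature with luciferase reagent. Before that, 3T3Gli1-Luc cells (NIH/3T3 clone, stable Gli1-Luc reporter; 2,000/well) were exposed to compounds for 24 hr at 37C, 5% CO2, compounds being added 4 hr post-plating.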

[6] = qHTS assay to identify small molecule antagonists of the progesterone receptor (PR) signaling pathway - cell viability counter screen (AID 1346798); note: nearly all actives have a fitted effect of over 50% in size
Procedure, shortened: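 Luminescence readout (CellTiter-Glo, 30 min, RT) of viability in PR-UAS-bla HEK293T cells exposed to compound and R5020 agonist for 16 hr at 37C, 5% CO2; run in the same wells as the beta-lactamase reporter read.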
Potency is the fitted concentration of half-maximal effect.

SMILES: Oc1ccc(Cl)cc1Cc1ccccc1
- Potency [1]: inactive [sample A] and inactive [sample B] and active: 55.1 µM [sample C]
- Potency [2]: inactive [sample A] and active: 55.6 µM [sample B]

SMILES: CCOP(=O)(O)OCC (tested in a mixture with another compound)
- Potency [3]: inactive [sample A] and active: 27.1 µM [sample B]
- Potency [4]: inactive [sample A] and active: 38.6 µM [sample B]

SMILES: Cc1cccc(N=Nc2ccc(N(C)C)cc2)c1
- Potency [3]: inactive [sample A] and active: 433 nM [sample B]
- Potency [5]: inactive [sample A] and active: 486 nM [sample B]

SMILES: Clc1ccccc1-c1nnc(-c2ccccc2Cl)nn1
- Potency [5]: active: 54 µM [sample A] and inactive [sample B]

SMILES: Nc1ccc([N+](=O)[O-])cc1N
- Potency [6]: active: 30.6 µM [sample A] and inactive [sample B]
